# Data taken from PubChem BioAssay (NCI).
#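 96-well plates; 48 h exposure; 5 concentrations. Endpoints by linear interpolation between flanking doses. Not reached: highest tested concentration assigned. GI50 marks 50% less growth. TGI: total growth inhibition.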 Activity calls are given as the source filed them. Cut-off read from the data, not from the text of the source: active = GI50 below about 0.43 µM; inactive = the rest.
# Tested on: NCI-H322M lung
# Assay: NCI-60 cell line screen, 48 h
SMILES,TGI [µM],GI50 [µM],outcome
O=C(O)C1=CN=C(C(=O)O)NN1,> 100,–,–
C[Si](C)(c1ccccc1)C1CC(=O)CC(=O)C1,> 100,–,–
N#Cc1c(Br)n(C2OC(CO)C(O)C2O)c2ncn3ccnc3c12 (stereo not given),> 100,> 100,–
CSC(Cc1ccc2c(c1)Sc1ccccc1O2)=[N+]1CCOCC1,> 100,–,–
Cc1nc(N)nn1C1OCC(O)C(O)C1O (stereo not given),> 100,–,–
COC(=O)C1CCC2(C)[C@H](CCC3O[C@]32C)[C@@]1(C)CC(=O)c1ccoc1 (stereo not given in full),> 100,–,–
Oc1ccc(-c2nc(=S)[nH][nH]2)cc1,> 100,–,–
O=c1[nH]c2cc(F)c(F)cc2nc1Cc1ccccc1,> 100,–,–
COc1cccc(N=Cc2cc(OC)c(OC)c(OC)c2)c1,> 100,–,–
CO/C(=N\N=Cc1ccccc1)c1ccncc1,> 100,–,–
[N-]=[N+]=Nc1c(N2CCOCC2)c(Cl)nc2ccccc12,> 100,–,–
O=C(O)CCCNS(=O)(=O)c1ccccc1,> 100,–,–
c1ccc2c(CC3NCCN3)cccc2c1,> 100,–,–
O=C1c2cc3ccccc3cc2C2(c3ccc(Cl)cc3)NCCN12 (stereo not given),> 100,–,–
CC1=C(c2cc(C(=O)Nc3cc(C)ccc3C)nc(N)n2)Sc2ccccc2N1,> 100,–,–
Cc1ccc(S(=O)(=O)N(CCN2C(=O)c3ccccc3C2=O)c2cc3c4c(c2)Oc2cc(N(CCN5C(=O)c6ccccc6C5=O)S(=O)(=O)c5ccc(C)cc5)cc5c2C4(C)c2c(cc(N(CCN4C(=O)c6ccccc6C4=O)S(=O)(=O)c4ccc(C)cc4)cc2O5)O3)cc1,> 100,–,–
COc1cc(/C=C2\N=C(c3ccccc3)N(c3nc4ccc(Sc5ccccc5)cc4[nH]3)C2=O)ccc1O,> 100,–,–
COc1ccc(/C=c2/sc3n(c2=O)NC2(CCCCC2)NN=3)cc1,> 100,–,–
CC(=O)OC1CCC2(C)C(CCC3C4CC=C(C5(C)OCCO5)C4(C)CCC32)C1 (stereo not given),> 100,–,–
CN(C)CCCn1c2c(c3ccc(-c4ccn[nH]4)cc3c1=O)C(=O)c1ccccc1-2,20.8,7.05,–
O=c1cc(NCC(O)CN2CCOCC2)n(Cc2ccccc2)c(=O)n1Cc1ccccc1 (stereo not given),> 100,> 100,–
CC1(C)CN=C(Nc2ccc(F)cc2)S1,> 100,–,–
COc1cc2c(oc(=O)c3cc(C)cc(OC)c32)c2c(C3OC(C)C(O)C(C)(O)C3O)ccc(O)c12 (stereo not given),2.42,–,–
O=C1CC2(CCC(O)(c3ccccc3)C(C(=O)c3ccccc3)C2)C(=O)c2ccccc2N1 (stereo not given),> 100,–,–
C=C1C(=O)O[C@H]2[C@H]1CC/C(COC(=O)/C=C\C(=O)NCc1ccc(Cn3c(=O)sn(CCCI)c3=O)cc1)=C\CC[C@@]1(C)O[C@@H]21,2.16,0.865,–

SMILES,TGI [µM],GI50 [µM],outcome
O=S(/C=C/C=C/S(=O)(=O)c1ccccc1)c1ccccc1 (stereo not given),> 10,–,–
CCC1(O)CC(OC2CC(N(C)C)C(OC3CC(O)C(OC4CCC(=O)C(C)O4)C(C)O3)C(C)O2)c2c(cc3c(c2O)C(=O)c2c(O)ccc(O)c2C3=O)C1C(=O)OC (stereo not given),0.0261,–,–
NC1=NS(=O)(=O)Nc2nc(-c3ccc(Cl)cc3)[nH]c21,> 100,–,–
NS(=O)(=O)c1nnc(NS(=O)(=O)c2ccc(F)cc2)s1,> 100,–,–
[N-]=[N+]=NC1C2CC3C4CC5CC3[C@H](C2)C(C5)C41 (stereo not given in full),> 100,–,–
COc1cc([C@@H]2C3C(=O)c4ccccc4C3[C@@H](c3cc(OC)c(OC)c(OC)c3)C23Cc2ccccc2C3=O)cc(OC)c1OC (stereo not given in full),> 100,–,–
CCCNC(=S)N=Nc1c(O)[nH]c2ccccc12,> 100,–,–
O=C1C(Cl)N(c2ccc(Cl)cc2Cl)C1c1c[nH]c2ccccc12 (stereo not given),> 100,–,–
[Cl-].[Nd+3].[O-]/N=C(\c1ccccc1)c1ccccn1.[O-]/N=C(\c1ccccc1)c1ccccn1.[O-]/N=C(\c1ccccc1)c1ccccn1,> 100,32.4,–
CC(=O)OC1Oc2ccccc2-c2oc(=O)c(-c3ccc(F)cc3)cc21 (stereo not given),> 100,42.2,–
CCOC(=O)/C(=C\NCc1ccc2c(c1)OCO2)c1nc2ccccc2[nH]1,> 100,–,–
C=CCOC(=O)C[C@H](NC(=O)[C@H](Cc1ccc(O)cc1)NCC(F)(F)F)C(=O)OCC=C,> 100,–,–
O=C(N/N=C/c1cc(Cl)cc(Cl)c1[O-])c1ccccc1O.O=C(N/N=C/c1cc(Cl)cc(Cl)c1[O-])c1ccccc1O.[Cl-].[Fe+3],22.4,10.6,–
CC(C)OC(=O)c1cc(NS(=O)(=O)c2ccc3ccccc3c2)cc(C(=O)OC(C)C)c1,> 100,84.9,–
O=[N+]([O-])c1ccc(-c2noc(-c3ccccc3)c2C2=NCCN2)cc1,> 100,–,–
CCOC(=O)/C=C1/SC(N2CCCCC2)C(=O)N1CC (stereo not given),> 100,> 100,–
COc1cccc2c(Nc3ccc(S(=O)(=O)N=C(N)N)cc3)c3ccc([N+](=O)[O-])cc3nc12,66.4,–,–
C=C1CCc2ccccc2C1=O,> 100,–,–
CCOC(=O)/C=C\c1c(Cl)n(-c2ccccc2)c(=O)n(-c2ccccc2)c1=O,37.1,–,–
O=C(Nc1ccc(Cl)cc1)c1cc2c(cc1Cl)Sc1nccn1S2(=O)=O,> 100,–,–
C=CCc1cccc2cc(C(N)=O)c(=N)oc12,> 100,–,–
C[C@@]1(C(=O)c2ccccc2)N(c2ccccc2)[C@@]1(C)C(=O)c1ccccc1,–,–,inactive
CC(=N\O)/C(C)=N/O.CC(=N\O)/C(C)=N/O.CC(=N\O)/C(C)=N/O.CC(=N\O)/C(C)=N/O.[CH3-].[CH3-].[Co].[Co],> 100,23.6,–
C[C@]12CCC(=O)CC1CC[C@@H]1C2CC[C@@]2(C)C1CC[C@@H]2OC(=O)CC[Se][Se]CCC(=O)O[C@H]1CCC2[C@@H]3CCC4CC(=O)CC[C@]4(C)C3CC[C@@]21C (stereo not given in full),6.29,2.63,–
